The source of these data is ChEMBL document CHEMBL4888484, “Replenishing the malaria drug discovery pipeline: Screening and hit evaluation of the MMV Hit Generation Library 1 (HGL1) against asexual blood stage Plasmodium falciparum ,using a nano luciferase reporter read-out” (2022).

In general, % Inhibition refers to the change of the read-out against control, counted positive when it falls.

Molecules are shown by their SMILES. About 540 (0.36%) of roughly 150,000 compounds showed an effect of 50% or more. This is one part of the list.

The subject of the assay is Plasmodium falciparum. The assay can be described thus: Primary screen in NF54 nanoGlo assay, in single point, at 2uM, 72h; a lower Z score goes with more inhibition. As to conditions: timepoint 72 hour. The class given is functional, Erythrocyte.
Take `Cc1cc(Br)ccc1NC(=O)CCNC1CCOC1C` (configuration not stated): the “% Inhibition” value is reported as -4% and the Z score stood at 0.5.

In the case of `CC(CC1CCCCCN1C(=O)OC(C)(C)C)NCc1cccc(C(N)=O)c1` (configuration not stated), the “% Inhibition” value is 1% and the Z score is reported as -0.11.

For the molecule `O[C@@H](CN(Cc1ccccc1)c1ncccn1)c1ccco1`, the “% Inhibition” value is -18% and the Z score came to 1.62.

For `Cc1nccc(C(=O)Nc2ccc(N3CCc4sccc4C3)cc2)n1`, the “% Inhibition” value is reported as -16% and the Z score is reported as 1.99.

`CN(CCC1CCOCC1)C(=O)Cn1ccc2ccccc2c1=O`: the “% Inhibition” value came to 17% and the Z score is reported as -2.19.

As to `C=C(C)C(NC(=O)NC1CCCc2cn[nH]c21)c1ccc(F)c(F)c1` (configuration not stated), the “% Inhibition” value was -3% and the Z score is on record as 0.38.

Consider `Cn1cncc1C(=O)N1CC(=O)N(CC(F)(F)F)C1`, for which the “% Inhibition” value was -2% and the Z score came to 0.25.

Consider `CC1CCN(CCNS(=O)(=O)c2ccc3ccccc3c2)CC1`, for which the “% Inhibition” value is recorded as 1% and the Z score is recorded as -0.17.

Take `O=C(C[C@H]1CCc2ccccc2C1)Nc1nncn1C1CC1`: the “% Inhibition” value is listed as -5% and the Z score came out at 0.75.

Consider `Cc1noc(C)c1CCCNS(=O)(=O)c1cc(Cl)cnc1N`, for which the “% Inhibition” value is -9% and the Z score was 1.77.

`CC(=O)N1CCC(C(=O)N2C[C@H](Nc3ncccn3)[C@@H](C3CC3)C2)CC1`: the “% Inhibition” value amounted to 11% and the Z score was -1.44.

In the case of `COc1cc2ccc1OCC(=O)N[C@@H](C)C(=O)N(C)CCCCN(C(=O)c1cc(Cl)cn1C)CCCNC2=O`, the “% Inhibition” value was -24% and the Z score amounted to 3.05.

As for `O=C(Nc1ccc(S(=O)(=O)N2CCOCC2)cc1)c1sc2ccccc2c1Cl`, the “% Inhibition” value is reported as -16% and the Z score stood at 2.24.

In the case of `CCCOC(=O)N1CCC[C@@]2(CCC(=O)N(Cc3cnc(C)cn3)C2)C1`, the “% Inhibition” value is reported as 6% and the Z score is reported as -0.75.

In the case of `COc1cccc(CC(=O)N[C@H](C)c2onc(-c3ccc(F)cc3)c2C(=O)O)c1`, the “% Inhibition” value is listed as -1% and the Z score was determined as 0.16.

Turning to `COc1ccc2c(c1)Oc1cc(C)ccc1N=C2N1CCCN(C(=O)Cc2ccccc2)CC1`, the “% Inhibition” value is listed as 4% and the Z score is listed as -0.52.

On to `CC1C=CC2C(=O)N(CC(F)(F)F)C(=O)C2C1C(=O)N1CCC(Cc2ccccc2)CC1` (configuration not stated), for which the “% Inhibition” value stood at 38% and the Z score is reported as -4.26.

`CCOCc1nc(C)c(C(=O)N2CC3(CCC3)[C@@H]2C(C)C)s1`: the “% Inhibition” value was 0% and the Z score is -0.05.

For the molecule `CCN1CC(=O)N[C@H]2CN(C(=O)CCCn3cccn3)CC[C@@H]2OCc2cccc(c2)Oc2cccc(c2)CC1=O`, the “% Inhibition” value is on record as -8% and the Z score was determined as 1.47.

For `CC[C@H]1C(=O)NCCN1Cc1ccc2c(c1)CN(C/C=C/c1ccccc1OC)CCO2`, the “% Inhibition” value was -2% and the Z score is 0.44.

On to `Cn1nncc1C(=O)Nc1ccc(Cl)cc1-c1ccc(Cl)cc1`, for which the “% Inhibition” value amounted to 11% and the Z score is listed as -1.52.

For `C#CC(CC)(CC)NC(=O)Nc1ccc(OC)cc1`, the “% Inhibition” value was 0% and the Z score is reported as 0.05.

Consider `Cc1cc(-n2cc(C#N)c(=O)[nH]c2=O)ccc1N1CCCC1`, for which the “% Inhibition” value is on record as -10% and the Z score is 1.62.

For the molecule `CCCn1cc(NC(=O)CC(C)(C)CC(=O)OC)cn1`, the “% Inhibition” value is on record as -3% and the Z score stood at 0.44.

Regarding `Cn1nccc1-c1ccc(-c2nc(C(C)(C)C)n[nH]2)cc1`, the “% Inhibition” value stood at 3% and the Z score is -0.43.

In the case of `Cc1cc2cc(C(=O)NS(=O)(=O)CC3(C#N)CCC3)oc2cc1C`, the “% Inhibition” value amounted to 1% and the Z score was -0.1.

For `Cc1cc(=O)c(C(=O)N(C)Cc2cnn(C(C)C)c2)c[nH]1`, the “% Inhibition” value is on record as -15% and the Z score stood at 2.14.

Consider `CC1CC(C)N(C(=O)c2ccc3c(c2)COCO3)C1` (configuration not stated), for which the “% Inhibition” value is given as 1% and the Z score was -0.2.

Turning to `COc1ccc(S(=O)(=O)N2CC(N3C(=O)CCC3=O)C2)cc1C`, the “% Inhibition” value is 16% and the Z score is -1.85.

On to `COC1(C(F)(F)F)CCN(c2ccc3nc(C)nn3n2)CC1`, for which the “% Inhibition” value is 11% and the Z score is given as -1.45.

Consider `CCOc1ccccc1S(=O)(=O)NCC1(OCCO)CCCC1`, for which the “% Inhibition” value is on record as -9% and the Z score turned out to be 1.

Take `COc1cc(-c2nc(CN3CCC[C@H]3c3nc4ccccc4s3)c(C)o2)ccc1F`: the “% Inhibition” value was found to be 1% and the Z score is given as -0.17.

As to `CC1CCS(=O)(=O)CCN1C(=O)NC1CCCc2nn(C)cc21` (configuration not stated), the “% Inhibition” value is on record as -5% and the Z score turned out to be 0.71.

Take `CC(=O)c1cccc(S(=O)(=O)N2CCN(C(=O)c3cnn4ccccc34)CC2)c1`: the “% Inhibition” value came out at 3% and the Z score is -0.46.

With `O=C(CN1CCO[C@H](c2ccc(Cl)cc2)C1)Nc1ccc(O)cc1`, the “% Inhibition” value is recorded as -39% and the Z score turned out to be 4.58.

In the case of `O=C(NCc1ccccc1)N1CCCN(c2nc3cc(Cl)ccc3n3cccc23)CC1`, the “% Inhibition” value stood at 0% and the Z score turned out to be 0.02.

`Cc1cccc(C)c1CN(CC(C)C)C(=O)c1cc(C(=O)O)nn1C`: the “% Inhibition” value is on record as -8% and the Z score was found to be 1.28.

Take `CCOC(=O)[C@H]1CC[C@@H](C)N(S(=O)(=O)c2cnn(CC)c2)[C@H]1C`: the “% Inhibition” value is recorded as -5% and the Z score is 0.48.

Consider `COc1cccc2cc(C(=O)N3CCN(c4ccc(-c5ccco5)nn4)CC3)oc12`, for which the “% Inhibition” value is listed as -11% and the Z score stood at 1.71.

`CN1C[C@H]2CC[C@@H](C1)N(Cc1ccc(-c3ccccc3C#N)o1)C2`: the “% Inhibition” value is 6% and the Z score was -0.89.

For the molecule `Cc1ccc(CN2CCC(Oc3ccc4ncccc4c3)(C(=O)O)CC2)o1`, the “% Inhibition” value is recorded as -4% and the Z score is listed as 0.53.
